According to PMC4336329 (PLoS ONE, 2015):
In all, about 310,000 compounds went through this assay and about 2,200 (0.71%) showed an effect of 50% or more. The effect is printed as a negative number. The list shows a part of the results.

What follows are compounds tested against human ether-à-go-go-related gene (hERG) potassium channel (human, UniProt Q12809) (assay: primary screen, population patch clamp on CHO cells stably expressing hERG).
Chain of human ether-à-go-go-related gene (hERG) potassium channel (Q12809 whole entry, looked up): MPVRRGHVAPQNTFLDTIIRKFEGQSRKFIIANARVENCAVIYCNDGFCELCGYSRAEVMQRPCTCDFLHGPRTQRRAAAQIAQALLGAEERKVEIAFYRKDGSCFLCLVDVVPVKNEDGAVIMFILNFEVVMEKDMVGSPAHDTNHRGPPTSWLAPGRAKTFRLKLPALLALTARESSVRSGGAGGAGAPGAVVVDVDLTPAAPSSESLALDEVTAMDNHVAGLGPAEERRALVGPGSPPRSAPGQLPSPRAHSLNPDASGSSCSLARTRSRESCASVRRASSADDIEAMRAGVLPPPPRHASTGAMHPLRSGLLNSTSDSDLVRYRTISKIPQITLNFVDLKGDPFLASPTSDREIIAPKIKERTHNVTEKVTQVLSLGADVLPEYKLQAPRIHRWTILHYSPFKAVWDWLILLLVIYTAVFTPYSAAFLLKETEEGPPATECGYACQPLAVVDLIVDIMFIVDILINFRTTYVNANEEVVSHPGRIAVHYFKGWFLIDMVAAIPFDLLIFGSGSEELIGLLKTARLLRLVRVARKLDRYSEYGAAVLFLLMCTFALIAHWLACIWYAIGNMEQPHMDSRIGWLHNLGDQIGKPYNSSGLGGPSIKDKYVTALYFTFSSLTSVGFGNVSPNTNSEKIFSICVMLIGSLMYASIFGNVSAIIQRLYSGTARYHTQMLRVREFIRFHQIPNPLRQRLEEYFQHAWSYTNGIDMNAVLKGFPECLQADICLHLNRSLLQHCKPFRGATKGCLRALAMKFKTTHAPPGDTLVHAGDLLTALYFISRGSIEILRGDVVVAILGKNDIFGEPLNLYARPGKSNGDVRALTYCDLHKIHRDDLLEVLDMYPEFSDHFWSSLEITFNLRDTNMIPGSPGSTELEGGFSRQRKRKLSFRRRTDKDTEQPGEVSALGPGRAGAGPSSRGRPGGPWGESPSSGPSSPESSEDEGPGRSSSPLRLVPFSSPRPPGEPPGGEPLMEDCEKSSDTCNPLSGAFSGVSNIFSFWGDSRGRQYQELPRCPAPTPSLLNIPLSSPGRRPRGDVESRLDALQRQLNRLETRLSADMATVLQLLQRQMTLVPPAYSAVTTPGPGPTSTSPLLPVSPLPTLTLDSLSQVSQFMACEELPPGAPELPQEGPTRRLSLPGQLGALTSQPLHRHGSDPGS

SMILES	hERG current change (%, negative = inhibition) at 1uM
Cc1ccc(/C=N/NC(=O)CNC(=O)c2ccc(S(=O)(=O)N(C)C)cc2)cc1	14%
CC(NC(=O)c1ccc(Cl)s1)C1CCCO1 (centres unmarked)	15.6%
Cc1ccc(C=Nc2cc([N+](=O)[O-])ccc2C)s1	15.5%
CCCc1cc(C(N)=S)ccn1	10.8%
CCO[C@H]1c2c(ccc3ccc(=O)oc23)OC(C)(C)[C@@H]1O	15.3%
CC(C)c1ccc(OCC(=O)NNC(=S)NC(=O)c2cccs2)c(Br)c1	-2.15%
COc1ccc(/C=C2\SC(N3CCCCC3)=NC2=O)cc1OC	1.43%
COc1ccc(OC)c(/C=C/C(=O)Nc2cccc(S(=O)(=O)N3CCCC3)c2)c1	4.01%
CCOC(=O)c1sc2nc3c(cc2c1N)COC(C)(C)C3	21%
COc1ccc(C2=NN(C(=O)CCC(=O)O)C(c3ccccc3F)C2)cc1 (centres unmarked)	3.64%
O=C(/C=C/c1ccccc1)NC(=S)NNS(=O)(=O)c1ccccc1	6.7%
O=S(=O)(NC1=NCCCCC1)c1ccccc1Cl	13.6%
Cc1ccc(OCC(=O)Nn2cnnc2)c(Br)c1	0.167%
COC(=O)[C@H](CC(C)C)NS(=O)(=O)c1ccccc1	5.96%
Cc1ccc2c(CN3CCC(C)CC3)cc(=O)oc2c1	-1.03%
Cc1ccc(C)c(N2CCN(C(=O)c3ccc(CS(=O)Cc4ccc(Cl)cc4)o3)CC2)c1 (centres unmarked)	11.6%
O=C(NCc1nc(-c2ccccc2)no1)c1cccs1	2.93%
Cc1ccc(Nc2nc(N)nc(CSCCO)n2)cc1	15.5%
Cc1c(Cl)cccc1-n1c(SCC(=O)N2CCC(C(=O)O)CC2)nc2ccccc2c1=O	15.5%
CCOC(=O)C1CCN(C(=O)c2ccccc2N(C)S(=O)(=O)c2ccccc2)CC1	0.932%

SMILES	hERG current change (%, negative = inhibition) at 1uM
Cc1ccc(F)cc1CNC(=O)c1cc(COc2ccc3ncccc3c2)on1	14.7%
COc1cc(CNCC2CCCO2)ccc1OCC(N)=O.Cl (centres unmarked)	7.9%
CCOC(=O)N1CCN(c2cc(NCCO)c([N+](=O)[O-])c3nonc23)CC1	14%
CCOc1ccc(CN2CCN(CC3CC3)CC2CCO)cc1 (centres unmarked)	-20.7%
O=C(O)CSC(=S)N1CC2CC(C1)c1cccc(=O)n1C2 (centres unmarked)	7.56%
O=C(OCC(=O)c1ccccc1Cl)c1cnccn1	6.94%
COCCSc1ccccc1C(=O)Nc1nnc(COC)s1	8.38%
Cc1cn(C(=O)c2cccc(Br)c2)c(C)n1	16.5%
COc1ccccc1CNC(=O)C1CSC2(C)CCC(=O)N12 (centres unmarked)	4.82%
O=C(O)C[C@H]1c2ccccc2S(=O)(=O)N1c1ccccc1	13.9%
Cc1ccsc1C1Nc2ccccc2-c2nc3ccccc3n21 (centres unmarked)	8.22%
CN(C(=O)c1nc(-c2ccccc2)n(-c2ccccc2)n1)C1CCS(=O)(=O)C1 (centres unmarked)	12%
O=C(COC(=O)[C@H](Cc1ccccc1)NS(=O)(=O)c1ccccc1F)NC1CCCCC1	1.02%
CC(=O)Nc1cccc(OCc2ccc(F)cc2)c1	8.2%
CN(C)CCNc1oc(/C=C/c2ccccc2)nc1C#N	-1.1%
COCCNC(=O)CSc1nc2ccccc2c(=O)n1CCC(=O)N1CCN(c2ccccc2)CC1	6.84%
COc1ccc(C(=O)c2sc(Nc3ccc(NC(C)=O)cc3)nc2C)cc1	12.5%
COc1ccc(-c2occ(C(=O)O)c2C(=O)O)cc1	-1.17%
C/C(=N\Nc1cc(N2CCOCC2)ncn1)c1ccccc1	12.1%
CC(=O)/C(N=Nc1c(C)n(C)n(-c2ccccc2)c1=O)=C(\C)O	15.1%

SMILES	hERG current change (%, negative = inhibition) at 1uM
Cn1c(SCC(=O)c2ccc(O)c(O)c2)nnc1-c1cccs1	11.4%
C#CCOC(=O)Nc1cc(C)n(-c2ccccc2)n1	5.54%
CC(C)COC(=O)n1c(SCC(=O)N(C)C)nc2ccccc21	3.66%
COC(Cn1c(C)c(C(C)=O)c(C(C)=O)c1C)OC	11.6%
O=C(CCCn1c(=O)[nH]c2ccccc2c1=O)NC1CCCCCC1	0.995%
O=C(c1nc2ccccn2c1CNCCCn1ncc2ccccc21)N1CCCC1	-11.9%
N#CC1(c2ccccc2)CCN(C2CC(=O)N(c3ccc(F)cc3)C2=O)CC1 (centres unmarked)	18.4%
CCN(CC)S(=O)(=O)c1cc(C(=O)Oc2cccc(-c3cnc4ccccc4n3)c2)ccc1Br	18.5%
CN(C(=O)CN1CCC(NC(=O)C2CCCCC2)CC1)C1CCCCC1.Cl	6.42%
Cc1cccc(-c2noc(CCCC(=O)Nc3cccnc3)n2)c1	-4.05%
CC(C)OCCCNC(=O)C1CCC(CNS(=O)(=O)c2cccc3nsnc23)CC1 (centres unmarked)	1.82%
CNc1ccc(C(=O)c2ccccc2C(=O)O)cc1[N+](=O)[O-]	9.38%
Cn1c(SCC(=O)Nc2cccc(F)c2)nnc1-c1cccnc1	-6.1%
CCOC(=O)C1CCN(c2nc(C)cc(C)c2C#N)CC1	9.6%
O=[N+]([O-])c1ccc(C2CN=C(Nc3ccccc3)S2)cc1 (centres unmarked)	8.51%
CCC1CCCCN1CCCNC(=O)c1ccc2nc(N3CCCCC3)sc2c1 (centres unmarked)	4.74%
Cc1cc(C)nc(SCc2nc3ncccn3c2Br)n1	8.24%
CN1C(C(=O)Nc2ccc(C(=O)O)cc2)=C(O)c2ccccc2S1(=O)=O	14%
COc1ccccc1Cn1c(=S)[nH]c2cc(C(=O)N3CCN(c4ccccc4OC)CC3)ccc2c1=O	17.7%
